Results on 20 variants are retold here after the RNAGym collection of RNA variant scans (doi:10.7554/elife.90254).

Sequences and labels used below:
B1: LINE1-full (parent)
chain: UACGUAGGUGGUUUUCCCCUGAUAGUGCUAAGGGGGCCUGGAAGUUUGGACUGGGCAGAGCUCAACACAGCGUGGCAAAGUGGCUGUGGCUAGACUGCCUCUCUGGAUUCCUCGUCACUCAGCAGGGCAUCUCUGAGAGAAAUGCC

Read counts are not given, so values of variants with three or more changes are uncertain.

In this data set the parent is B1. Put plainly: self-cleavage, relative activity (ratio to wild type); higher = more cleavage; in vitro, sequencing; the parent is a self-cleaving ribozyme.
For the variant UACGUAGGAGGUUUUCCCCUGAUAGAGCUAAGGGGGCCUGGAAGUUUGGACCGGGCAGAGCUCAACACAGCGUGGCAAAGUGGCUGUGGCUGGACUGCCUCUCUGGAUUCCUCGUCACUCAGCAGGGCAUCUCUGAGAGAAAUGCC [U9A U26A U52C A92G], the self-cleavage was found to be 0.29.
The same measure for UACGUAGGUGGUUUUCCCCUGAUAGUGCUAAGGGGGCCUGGAAGUUAGGACUGGGCAGAGCUCUACGCAGCGUGGCAAAGUGGCUGUGGCUAGACUGCCUCUCUGGAUUCCUCGUCACUCAGCAGGGCACCUCUGAGAGAAAUGCC [U47A A64U A67G U130C]: 0.18.
To UACGUAGGUGGUUUUCCCCUGAUAGUGCUAAGGGGGCCUGGAAGUUUGGACUGGGCAGAGCUCAACACAGCGUGGCAAAGUGGCUGUGGCUAGACUGCCUCUCUGGACUCCUCGUCACUCAUCAGGGCGUCUCUGAGAGAAAUGCC [U108C G122U A129G] belongs 1.04; to UACGUAGGUGGUUUUCCCCCGAUAGUGCUAAGGGGGCCUGGAAGUUUGGACUGGGCAGUGCUCAACACAGCGUGGCAAAGUGGCCGUGGCUAGACUGCCUCUCUGGAUACCUCGUCACUCAGCAGGGCAUCUCUGAGAGAAAUGCC [U20C A59U U85C U109A], 0.18.
Turning to UACGUAGGUGGUCUUCCCCUGAUAGUGCUAAGGGGUCCUGGAAGUUUGGACUGGGCAGAGCUCAACACAGCGUGGCAAGGUGGCUGUGGCUAGACUGCCUCUCUGGAUUCCUCGUCACUCAGCAGGGCAUCUCUGAGAGAAAUGCC [U13C G36U A79G], the self-cleavage amounted to 0.66.
For UACGUAGGUGGUUUUCCCCUGAUAGUGCUAAGGGGGCCUGGAAGUUUGGACUGGGCAGAGCCCAACACAGCGUGGCAAAGUGGCUGUGGCUAGACUGCCUCUCUGGAUUCCUCGUCACUCCGCAGGGCAUCUCUGAGAGAAGUGCC [U62C A121C A142G], the self-cleavage turned out to be 0.09.
To UACGUAGGUGGUUUUCCCCUGAAAGUGCUAAGGGGGCCUGGAAGUUUGGACUGGGCAGAGCUCAACGCAGCGUGGCAAAGUGGCUGUGGCUAGACUGCCUCUCUGGAUUCCUCGUCACUCAGCAGGGCAUCUCUGAGAGAGAUGCC [U23A A67G A141G] belongs 0.74; to UACGUAGGCGGUUUUCCCCUGAUAGUGCUAAGGGGGCCCGGAAGUUUGGACUGGGCAGAGCUCAACACGGCGUGGCAAAGUGGCUGUGGCUAGACUGCCUCUCUGGAUUCCUCGUCACUCAGCAGGGCAUCUCUGAGGGAAAUGCC [U9C U39C A69G A138G], 0; to UACGUAGGUGGUUUUCCCCUGAUAGCGCUAAGGGGGCCUGGAAGUUAGGACUGGGCAGAGCUCAGCACAGCGUGGCAAAGUGGCUGUGGCUAGACUGCCUCUCUGGAUUCCUCGCCACUCAGCAGGGCAUCUCUGAGAGAAAUGCC [U26C U47A A65G U115C], 0.25.
The same measure for UACGUAGGUGGUUUCCCCCUGAUAGUGCUAAGGGGGCCUGGAAGUUUGGACUGGGCAGAGCUCAUCACAGCGUGGCAAAGUGGCUGUGGCUAGGCUGCCUCUCUGGAUUCCUCGUCACUCAGCUGGGCAUCUCUGAGAGAAAUGCC [U15C A65U A94G A124U]: 0.05; for UACGUAGGUGGUUUUCCCCUGGUAGUGCUAAGGGGGCCUGGAAGUUUGGACUGGGCAGAGCUCAACACAGCGUGGCAGAGUGGCUGUGGCUAGGCUGCCUCUCUGGAUUCCUCGUCACUCAGCAGGGCAUCACUGAGAGAAAUGCC [A22G A78G A94G U132A]: 0; for UACGUAGGUGGUAUUCCCCUGAUAGUGCUAAGGGGGCCUGGAAGUUUGGACUGGGCUGAGCUCAACACAGCGUGGCAAAGUGGCUGUGGCCAGACUGCCUCUCUGGAUUCCUCGUCACUCAGCAGGGCAUCUCUGAGAGAAAUGCC [U13A A57U U91C]: 0.03.
UACGUAGGUGGUUUUCCCCUGAUAGUGCUAAGGGGGCCUGGAAGUUUGGACUGGGCAGAGCUCAACACAGCGUGGCAUAGUGGCUGUGGCUAGACUGCCUCUCUGGUUUCCUCGUCACUCAGCAGGGCAUCUCUGUGAGAAAUGCC [A78U A107U A136U]: the self-cleavage worked out at 0.99.
In the case of UACGUAGGAGGUUUUCCCCUGAUAGUGCUAAGGGGGCCUGGAAGAUUGGACUGGGCAGAGCUCAACACAGCGUGGCAAAGUGGCUGUGGCUAGACUGCCUCUCUGGAUACCUCGUCACUCAGCAGGGCAUCUCUGAGAGAAAUGCC [U9A U45A U109A], the self-cleavage amounted to 1.63.
The same measure for UACGUAGGUGGUAUUCCCCUGAAAGAGCUAAGGGGGCCUGGAAGUUUGGACUGGGCAGAGCUCAACACAGCGUGGCAAAGUGGCUGUGGCUAGACUGCCUCUCUGGAUUCCUCGUCACUCAGCAGGGCAUCUCUGAGAGGAAUGCC [U13A U23A U26A A140G]: 1.84; for UACGUAGGUGGCUUUCCCCUGAUAGUGCUAAGGGGGCCUGGAAGUUUGGACUGGGCAGAGCUCAACACAGCGUGGCAAAGCGGCUGUGGCUAGACUGCCUCUCUGGAUUCCUCGCCACUCAGCAGUGCAUCUCUGAGAGAAAUGCC [U12C U81C U115C G126U]: 2.96; for UACGUAGGUGGUUUUCCCCUGAUAGUGCUAAGGGGGCCCGGAAGUUUGGACUGGGCAGAGCUCAACACAGCGUGGCAAAGUGGCUGUGGCUAGACUGCCUCUCUGGAUUCCUCGCCACUCAGCAGGGCAUCUCUGAGGGAAAUGCC [U39C U115C A138G]: 2.57.
In the case of UACGUAGGUGGUUUUCCCCUGAUAGUGCUAGGAGGGCCAGGAAGUUUGGACUGGGCAGAGCUCAACACAGCGUGGCCAUGUGGCUGUGGCUAGACUGCCUCUCCGGAUUCCUCGUCACCCAGCAGGGCAUCUCUGAGAGAGAUGCC [A31G G33A U39A A77C A79U U104C U119C A141G], the self-cleavage turned out to be 0.
To UACGUAGGUGGUCUUCCCUUGAUAGUGCUAAGGGGGCCUGGAAGUUUGGACUGGGCAGAGCUCAACACAGCGUGGCAAAGUGGCUGUAGCUAGACUGCCUCUCUGGAUCCCUCGUCACUCAGCAGGGCAUCUCUGAGAGAAAUGCC [U13C C19U G88A U109C] belongs 0.05.
As to UACGUAGGUGGUAUUCCCCUGAUAGUGCUAAGGGGGCCUGGAAGUUUGGACCGGGCAGAGCACAACACAGCGUGGCAAAGUGGCUGUGGCCAGACUGCCUCUCUGGAUUCCUCGUCACUCAGCAGGGCAUCUCUGAGAGAAAUGCC [U13A U52C U62A U91C], the self-cleavage is 0.
